The test system of this test is MIWI (PIWIL1) piRISC loaded with L1MC piRNA (30 nt). Nature of the test: pre-steady-state target cleavage rate (min^-1); MIWI and MILI are mouse PIWI proteins and EfPiwi is from a freshwater sponge; tags in brackets are library labels; higher = faster piRNA-guided slicing of the target. As to conditions: guide: L1MC piRNA 5'p-UAACUAAAUACUAUGCAAGCUGUAGGUCCU
The method, boiled down:
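The method was Cleave-'n-Seq, in which uncleaved targets from a transcribed, DNA-blocked target RNA library were sequenced after exposure to active affinity-purified piRISC carrying one synthetic guide, with or without GTSF1 partner protein. Reactions contained 0.1 nM library, 1 nM piRISC and, where present, 500 nM GTSF1 in HEPES–potassium acetate buffer at 33 °C for 0–8 or 0–960 min. Reads were normalised to depth and to weakly complementary targets, three trials were pooled, and k3 was capped at 0.0001 min^-1. The pre-steady-state cleavage rate came from a burst-and-steady-state fit.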

Where [1] appears, read: auxiliary factor: none (no GTSF1).
Setting [2] is: auxiliary factor: 500 nM mouse GTSF1.

± gives the standard deviation. The list shows a part of the results, in another mix than the full data. Where only a bound is given, the exact number is not on record here.

As for UCCUGGAUGUCGAACGUAAGUAUUUACAUA, the “pre-steady-state target cleavage rate” value under setting [1] was < 0.0001.

In the case of “UCCUGGAUGUCGAACCAUAGUAUUUUCAAA [g6:g15:cont:t1A]”, the “pre-steady-state target cleavage rate” value under setting [1] is < 0.0001.

UCCUGGUACAGCAUGCAUAGUAUUUUCAAA: the “pre-steady-state target cleavage rate” value under setting [2] stood at 0.199 ± 0.048.

Regarding UCGACCUACAGGAUGCAUAGUAUUUACAAA, the “pre-steady-state target cleavage rate” value under setting [2] is 0.277 ± 0.032.

UCCACCUACAGCAAGCAUAGUAUUUAGUAA: the “pre-steady-state target cleavage rate” value under setting [2] was determined as 0.507 ± 0.042.

Turning to UCCUGGAUGUCCUUGCAUAGUUAAUAGUUA, under setting [2], the “pre-steady-state target cleavage rate” value came out at 0.00429 ± 0.004.

In the case of UCCACCUAGAGCUUCCAUAGUAUUUAGUUA, under setting [2], the “pre-steady-state target cleavage rate” value worked out at 0.0648 ± 0.021.

As to AGGACCUACAGCUUGCAUUCUAUUUUCAAA, under setting [2], the “pre-steady-state target cleavage rate” value came out at 0.132 ± 0.044.

Turning to UGGACCUACAGCUUGCAUAGUAAAUAGUAA, the “pre-steady-state target cleavage rate” value under setting [2] was 0.224 ± 0.034.

Turning to UCCUGGUACAGCUUGGUUAGUAUUUACAAA, under setting [2], the “pre-steady-state target cleavage rate” value stood at 0.0315 ± 0.013.

On to UCCUGGAACAGCUUGCAUAGUAUAUUCAAA, for which the “pre-steady-state target cleavage rate” value under setting [2] came out at 0.166 ± 0.041.

Consider UCCUGGAUGUCGAACGAAAGUAUUUACUUA, for which the “pre-steady-state target cleavage rate” value under setting [1] was < 0.0001.

Take UCCACCUACAGCUUGCUAUGUAUUUAGUAA: the “pre-steady-state target cleavage rate” value under setting [2] is 0.0482 ± 0.011.

For UCGUGGUACAGCUUGCAUAGUAUUUUCAAA, under setting [2], the “pre-steady-state target cleavage rate” value was 0.283 ± 0.043.

On to UCCUGGAUGUCGUUCAUAGUAUUUAGUUA, for which the “pre-steady-state target cleavage rate” value under setting [2] was found to be 0.00465 ± 0.0037.

For UCCUGGAUGUCGAAGCACAGUAUUUAGUUA, the “pre-steady-state target cleavage rate” value under setting [2] was found to be 0.00741 ± 0.0037.

Consider UCCACCUACAGCUUGCAUAGUUAUUAGUAA, for which, under setting [2], the “pre-steady-state target cleavage rate” value stood at 0.126 ± 0.026.

On to UCCACCUACAGCUUGCAUAGUAUAAACAAA, for which, under setting [2], the “pre-steady-state target cleavage rate” value was determined as 0.226 ± 0.034.

Take UCGACCUACAGCUAGCAUAGUAUUUAGAAA: the “pre-steady-state target cleavage rate” value under setting [2] turned out to be 0.5 ± 0.045.

With UCCUGGAUGUCCUUGCUAUGUAUUUAGUAA, under setting [2], the “pre-steady-state target cleavage rate” value stood at 0.00637 ± 0.0038.

As to UCCUGGAUCAGCUUGCUAAGUAUUUAGUAA, the “pre-steady-state target cleavage rate” value under setting [2] was determined as 0.00706 ± 0.004.

For UCCUGGAUCUGCUUGCAUAGUAUUUUCAAA, the “pre-steady-state target cleavage rate” value under setting [2] amounted to 0.0664 ± 0.013.

On to UCCUGGAUGUGCUUGCAUAGUCAUUUAGUUA, for which the “pre-steady-state target cleavage rate” value under setting [2] is 0.00413 ± 0.0039.

For UCCUGGAUGUCGUUGCAUGGUAUUUAGUUA, the “pre-steady-state target cleavage rate” value under setting [2] amounted to 0.00724 ± 0.0025.

With UCCUGGAUGUCGAUGCAUAGUAUUGAGUUA, the “pre-steady-state target cleavage rate” value under setting [2] was found to be 0.02 ± 0.006.

Turning to UCCUGGAUCAGCUUGCAUAGUAUAUUCAAA, the “pre-steady-state target cleavage rate” value under setting [2] stood at 0.0232 ± 0.0077.

As to UCCACCUACAGCUUCGAUAGUAUUUACAAA, under setting [2], the “pre-steady-state target cleavage rate” value was 0.0216 ± 0.0089.

As for UCGACCUACAGCUUCCAUAGAAUUUAGUUA, the “pre-steady-state target cleavage rate” value under setting [2] turned out to be 0.0287 ± 0.012.

On to UCCUGGAUGUCCAUGCAUAGUAUUUACUUA, for which the “pre-steady-state target cleavage rate” value under setting [2] was determined as 0.0104 ± 0.0048.

As for UCCUGGAUGUGCUUCCAUAGUAUUUAGUAA, under setting [2], the “pre-steady-state target cleavage rate” value is 0.00555 ± 0.0037.

Consider “UCCUGGAUGUCGAACGAUAGUAUUUAGUUU [g2:g14:cont:t1U]”, for which, under setting [2], the “pre-steady-state target cleavage rate” value is < 0.0001.

Regarding UCCUGCUACAGCUUGCAUAGAAUUUUCAAA, under setting [2], the “pre-steady-state target cleavage rate” value came out at 0.0984 ± 0.02.

Regarding UCCUGCUACAGCUUGCAUAGUAUUUAUUA, the “pre-steady-state target cleavage rate” value under setting [2] came out at 0.195 ± 0.023.

Regarding AGGACCUACAGCAAGCAUAGUAUUUAGAAA, the “pre-steady-state target cleavage rate” value under setting [2] stood at 0.615 ± 0.083.

On to UCCUGGAUGUCGAACGAUGUAUUUAGUUA, for which the “pre-steady-state target cleavage rate” value under setting [1] is < 0.0001.

Turning to UCCUGGUACAGCUUGCUAUGUAUUUAGUAA, the “pre-steady-state target cleavage rate” value under setting [2] came to 0.0244 ± 0.0086.

Take UCCUGCUACAGCUUGCUUAGUAUUUAGAAA: under setting [2], the “pre-steady-state target cleavage rate” value turned out to be 0.212 ± 0.04.

Take UCCUGGAUGUCGAUGCAUAGUGUUUAGUUA: the “pre-steady-state target cleavage rate” value under setting [2] was found to be 0.00475 ± 0.0042.

Take “UCCUGGAUGUCGUUGCAUAGUAUUUAGUUG [g2:g18:cont:t1G]”: the “pre-steady-state target cleavage rate” value under setting [2] came out at 0.0101 ± 0.0031.

UCCACCUACAGCUUGCAUAGUAUUAUCUAA: the “pre-steady-state target cleavage rate” value under setting [2] worked out at 0.262 ± 0.047.

On to UCCUGCUACAGCUUGCAUAGUAAUUUCAAA, for which the “pre-steady-state target cleavage rate” value under setting [2] worked out at 0.278 ± 0.074.

Regarding UCCUGGAACAGCUUGGUUAGUAUUUACAAA, the “pre-steady-state target cleavage rate” value under setting [2] turned out to be 0.0339 ± 0.014.

As for UCCUGGAUGUCGAACGUAAGUAUUUACUAA, under setting [1], the “pre-steady-state target cleavage rate” value is < 0.0001.

Consider UGGACCUACACGAUGCAUAGUAUUUAGAAA, for which, under setting [2], the “pre-steady-state target cleavage rate” value is 0.122 ± 0.016.

Regarding UCCUGGAUGUCGUUGUAUAGUAUUUAGUUA, under setting [2], the “pre-steady-state target cleavage rate” value was determined as 0.00797 ± 0.0026.

Turning to UCCUGCUACAGCUUGCUAUGUAUUUAGAAA, under setting [2], the “pre-steady-state target cleavage rate” value turned out to be 0.0154 ± 0.0069.

On to UCCUGGAUCAGCUACCAUAGUAUUUAGUUA, for which, under setting [2], the “pre-steady-state target cleavage rate” value is 0.021 ± 0.005.

As for UGCACCUACAGCUUGCAUAGUAUUUACAAA, the “pre-steady-state target cleavage rate” value under setting [2] turned out to be 0.345 ± 0.05.

As to UCCUGCUACAGGAAGCAUAGUAUUUACAAA, the “pre-steady-state target cleavage rate” value under setting [2] was 0.0144 ± 0.0057.

As to UCCUGCUACAGCUUGCAUGAGUAUUUAGUUA, the “pre-steady-state target cleavage rate” value under setting [2] worked out at 0.00499 ± 0.004.

For AGGACCUACAGCUUGCAUGAGUAUUUAGUUA, the “pre-steady-state target cleavage rate” value under setting [2] came to 0.194 ± 0.068.

UCCUGGUACAGCUUGCAAUGUAUUUACAAA: under setting [2], the “pre-steady-state target cleavage rate” value stood at 0.0171 ± 0.0072.

As to UCCUGCUACACCUUCCAUAGUAUUUAGUUA, under setting [2], the “pre-steady-state target cleavage rate” value was 0.0288 ± 0.014.

Turning to UCCUGGAUGUCCUUGCAUAGUAUUUUGUAA, the “pre-steady-state target cleavage rate” value under setting [2] was determined as 0.0108 ± 0.006.

Consider AGGACCUACAGCUUGCAUAGUAUAAUGAAA, for which the “pre-steady-state target cleavage rate” value under setting [2] was 0.385 ± 0.071.

Regarding UCCUGGAUGUCCUAGCAUAGUAUUUUGUUA, the “pre-steady-state target cleavage rate” value under setting [2] worked out at 0.00704 ± 0.0048.

As for UCCUGGAUGUCCUUGCAAAGUUUUUAGUUA, under setting [2], the “pre-steady-state target cleavage rate” value was determined as 0.00466 ± 0.0041.

Take UCCUGGAUGUGCAAGCAUAGUAUUUAGUAA: under setting [2], the “pre-steady-state target cleavage rate” value was 0.00425 ± 0.0035.

Take UCCUGGAUGUCCUUGCAAAGUAUUUAGUAA: the “pre-steady-state target cleavage rate” value under setting [2] came to 0.00951 ± 0.0044.

As for UCCUCCUACAGCUUGCAUAGAUUUUAGAAA, under setting [2], the “pre-steady-state target cleavage rate” value stood at 0.0307 ± 0.011.

Values taken from the supplement of paper PMC10338343.
